# Over roughly 33,000 sequences, “E-score (-0.5 to 0.5)” has its median near -0.054; the highest 2% begin near 0.39. This is one part of the list.
# Target: Ylr278c (UniProt Q05854)
# Assay: PBM E-score (8-mer binding enrichment) (E-score (-0.5 to 0.5)); higher = stronger / more preferred TF binding; most listed sequences are background and not binding sites
# Conditions: protein concentration: 200 nM; construct: GST-DNA-binding domain
# Outline: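 E-scores (a modified Wilcoxon-Mann-Whitney statistic) were assigned by the Universal PBM Analysis Suite to every ungapped eight-base word pooled with its reverse complement. The input came from universal all-10-mer Agilent arrays made double-stranded by primer extension and probed with GST-tagged yeast transcription factors at about 100-200 nM. Fluorescent anti-GST detected bound protein, and masliner normalised the scans.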
row,Sequence,PBM E-score
1,AAGCTACG,-0.227
2,AACGATAC,-0.245
3,GCATCGCA,-0.0161
4,AATTAGAT,-0.0362
5,GCCGAAAC,0.29
6,GATAGTCC,0.0524
7,GCAATGCC,0.199
8,CCACGTAA,-0.101
9,ACCGGATC,0.354
10,ATATTCAA,0.00075
11,GGACAAGA,0.0181
12,CCTAAGAA,-0.261
13,GTCCCCCA,-0.315
14,CTACACAC,-0.114
15,AATAAGCG,-0.0642
16,CCCGTAGC,-0.061
17,AATTCACA,-0.0773
18,CAACGTTA,-0.186
19,GACGGGGC,0.123
20,GTATTCCA,-0.0723
21,CGAAGTGC,0.118
22,CCTAGGCG,-0.222
23,TTACTAAA,-0.221
24,ATAATGGA,-0.0453

row,Sequence,PBM E-score
1,GTCAGAAA,-0.243
2,ACACAACC,-0.0894
3,CATGATTC,-0.107
4,AATAAAAC,-0.105
5,GGCAAGTA,-0.0613
6,CGTGCAGC,0.0102
7,GGGGGCCA,-0.0264
8,ATTACTAA,-0.0856
9,ACCCATTC,-0.02
10,ATACTATG,0.0207
11,ACATGCTG,-0.267
12,CATTTGGA,0.04
13,AGAGTTCA,-0.234
14,AACATATA,0.00185
15,AGGGCTGG,-0.154
16,CTAAGTTC,-0.209
17,CGGGGGGA,-0.0265
18,GACCCGTC,-0.062
19,GGAGATCC,0.38
20,AATGTCTA,-0.289
21,TTGCAAAA,0.0491
22,CACCGACC,0.192
23,CAAGCAAG,-0.129
24,AATGTTAA,-0.0403

row,Sequence,PBM E-score
1,ACTGCGAT,0.0797
2,AGACCGCA,0.0287
3,AGCTCCAA,-0.207
4,CCTGGCAA,-0.172
5,GGCCTCGA,-0.16
6,ATTACCGC,0.259
7,GTCACTAA,-0.182
8,AGGCGCGA,0.0365
9,GCTTCCCC,-0.0315
10,ATCAACCC,0.142
11,TCAAGGGA,-0.109
12,CATTTCCG,0.406
13,AAGGGTGC,-0.101
14,TAGTCTCA,-0.158
15,ACCCCACA,0.0123
16,CAAAAAGA,-0.0543
17,CGTTAGGC,0.00511
18,ACCCAGAG,-0.0923
19,CTACGACA,-0.0581
20,CCCGCCAG,0.177
21,CTCGGAGC,0.431
22,AACCTACT,-0.0251
23,CGTGTCAA,-0.122
24,CAGTCCCG,0.199

row,Sequence,PBM E-score
1,GCGATTAA,0.055
2,AACTATAT,-0.0181
3,AGTAGCTG,-0.124
4,CGTGCTAG,-0.299
5,GAGGCGTA,-0.0571
6,ATCATCTG,0.0272
7,AAGATTTC,0.12
8,ACCATTTG,-0.00863
9,TCAGACCA,-0.124
10,GAACTAAA,0.0635
11,AGCTTGAA,-0.122
12,CCTTATGA,-0.103
13,CCTTTCAG,-0.192
14,GGAGCGCA,0.162
15,CAAGTTAC,0.0544
16,CGCTTCCA,-0.0427
17,GTTTGGAA,-0.0915
18,ATTTTACC,0.226
19,GGACAGAC,0.0479
20,CGCGACAC,0.179
21,ATAGGCGG,0.301
22,CGAGGAAG,0.0261
